Results reported in the supplement of paper PMC8183993.
Counter-ions that a name gives are not always drawn. ± gives the standard deviation of the averaged measurements. The full ranking holds about 3,100 compounds; the median of “mean cytoplasmic OPP incorporation (global translation) relative to DMSO” is about 100, and the lowest 2% start at about 56. This is one part of the list.

What follows are molecules tested on U2OS (assay: mean cytoplasmic OPP incorporation (global translation) relative to DMSO (% of DMSO); higher = more protein synthesis). Details: 10 µM; 24 h.
Protocol: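 Primary image-based screen in U2OS cells: compounds at 10 uM for 24 h, then a 1 h o-propargyl-puromycin (OPP) pulse, click labelling, and high-throughput microscopy. Mean cytoplasmic OPP intensity and nuclei count were normalised to DMSO wells within each plate (DMSO = 100) and averaged over triplicate plates.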

Compound	mean cytoplasmic OPP incorporation
COc1cc(F)c(C(C)C)cc1-c1ccc(C(F)(F)F)cc1CN1C(=O)O[C@H](c2cc(C(F)(F)F)cc(C(F)(F)F)c2)[C@@H]1C [Anacetrapib (MK-0859)]	111
CC(C)(C)c1ccc(/C=C/C(=O)Nc2ccc3c(c2)OCCO3)cc1	112
CCc1ccc(CCOc2ccc(CC3SC(=O)NC3=O)cc2)nc1 (stereo unspecified) [Pioglitazone]	102.8 ± 0.67
O=C(CCCCCCC(=O)Nc1cccnc1)NO [Pyroxamide]	65.9
Cc1ccc(S(=O)(=O)C=CC#N)cc1	65.3
Cc1ccc(N(CC2=NCCN2)c2cccc(O)c2)cc1 [Phentolamine hydrochloride]	95.1
Cc1ccc(N(CC2=NCCN2)c2cccc(O)c2)cc1 [Phentolamine HCl]	95.5
O=C1c2ccccc2C(=O)C1c1ccccc1 [Phenindione]	105
O=C(c1cc(Cc2n[nH]c(=O)c3ccccc23)ccc1F)N1CCN(C(=O)C2CC2)CC1 [Olaparib]	101
O=C(c1cc(Cc2n[nH]c(=O)c3ccccc23)ccc1F)N1CCN(C(=O)C2CC2)CC1 [Olaparib (AZD2281)]	96.1
CC(C)[C@@H](C)/C=C/[C@@H](C)[C@H]1CC[C@H]2C3=CC=C4C[C@@H](O)CC[C@]4(C)[C@H]3CC[C@]12C [Ergosterol]	123
Clc1ccc2c(c1)C(N1CCNCC1)=Nc1ccccc1O2 [Amoxapine]	98.3
O=C(O)CCc1nc(-c2ccccc2)c(-c2ccccc2)o1 [Oxaprozin]	98.8
CCCCCCCCOC(=O)/C=C/c1ccc(O)c(O)c1 [n-Octyl caffeate]	88.9
OCCN1CCN(CCCN2c3ccccc3Sc3ccc(C(F)(F)F)cc32)CC1 [Fluphenazine dihydrochloride]	114
CC(C)(Oc1ccc(CCNC(=O)c2ccc(Cl)cc2)cc1)C(=O)O [Bezafibrate]	95.3
c1ccc(CC2=NCCN2)cc1 [Tolazoline hydrochloride]	103
CC[C@H]1OC(=O)[C@H](C)[C@@H](O[C@H]2C[C@@](C)(OC)[C@@H](O)[C@H](C)O2)[C@H](C)[C@@H](O[C@@H]2O[C@H](C)C[C@H](N(C)C)[C@H]2O)[C@](C)(O)C[C@@H](C)C(=O)[C@H](C)[C@@H](O)[C@]1(C)O [Erythromycin]	109
CC[C@H]1OC(=O)[C@H](C)[C@@H](O[C@H]2C[C@@](C)(OC)[C@@H](O)[C@H](C)O2)[C@H](C)[C@@H](O[C@@H]2O[C@H](C)C[C@H](N(C)C)[C@H]2O)[C@](C)(O)C[C@@H](C)C(=O)[C@H](C)[C@@H](O)[C@]1(C)O [Erythromycin (E-Mycin)]	101
CCOC(=O)N1CCC(=C2c3ccc(Cl)cc3CCc3cccnc32)CC1 [Loratidine]	102
CCOC(=O)N1CCC(=C2c3ccc(Cl)cc3CCc3cccnc32)CC1 [Loratadine]	115
CC(C)Cc1ccc(C(C)C(=O)NO)cc1 (stereo unspecified) [Ibuproxam]	99.7
Nc1nc(F)nc2c1ncn2[C@@H]1O[C@H](COP(=O)(O)O)[C@@H](O)[C@@H]1O [Fludarabine Phosphate (Fludara)]	100
O=C(NOCC1CC1)c1ccc(F)c(F)c1Nc1ccc(I)cc1Cl	93.6
CC1(C)CCC(c2ccc(Cl)cc2)=C(CN2CCN(c3ccc(C(=O)NS(=O)(=O)c4ccc(N[C@H](CCN5CCOCC5)CSc5ccccc5)c(S(=O)(=O)C(F)(F)F)c4)cc3)CC2)C1 [ABT-263 (Navitoclax)]	112
COc1[nH]c2ccc(F)cc2c1C(=O)OCC1CCN(CCNS(C)(=O)=O)CC1.NS(=O)(=O)O	99.7

Compound	mean cytoplasmic OPP incorporation
O=C(OCCN1CCOCC1)C1(c2ccccc2)CCCCC1 [PRE-084 hydrochloride]	101
CC(C)C[C@H](NC(=O)[C@H](Cc1ccccc1)NC(=O)c1cnccn1)B(O)O [Bortezomib (Velcade)]	58.9
COc1ccc(CC(C)NCC(O)c2ccc(O)c(NC=O)c2)cc1 (stereo unspecified) [Formoterol hemifumarate]	93.6
COc1ccc(CC(C)NCC(O)c2ccc(O)c(NC=O)c2)cc1 (stereo unspecified) [Formoterol fumarate]	103
CS(=O)(=O)c1ccc(C(=O)Nc2ccc(Cl)c(-c3ccccn3)c2)c(Cl)c1 [Vismodegib (GDC-0449)]	104
COc1ccc(-c2coc3cc(O)ccc3c2=O)cc1 [Formononetin (Formononetol)]	97.7
CN1CCN(S(=O)(=O)c2ccc(-c3cnc(N)c(C(=O)Nc4cccnc4)n3)cc2)CC1	106
CNc1nc(-c2ccc3c(N)n[nH]c3c2)cc(N2C[C@@H](C(=O)NC3CCCCC3)CC[C@H]2C)n1	96.9
O=C(Nc1cc(C(F)(F)F)cc(C(F)(F)F)c1)c1cc(Cl)ccc1O	103
CN(C)[C@@H]1C(O)=C(C(N)=O)C(=O)[C@@]2(O)C(O)=C3C(=O)c4c(O)cccc4[C@@](C)(O)[C@H]3C[C@@H]12 [Tetracycline hydrochloride]	97.9
NC(=O)N1CCC(CC(=O)N2CCC([C@H]3c4ncc(Br)cc4CCc4cc(Cl)cc(Br)c43)CC2)CC1	97.4
C[C@H](N[C@@H](CCc1ccccc1)C(=O)O)C(=O)N1CCC[C@H]1C(=O)O [Enalaprilat dihydrate]	102
O=C1N[C@H](C(=O)O)CS1 [Procysteine]	119
C[C@]12CCC(=O)C=C1CC[C@@H]1[C@@H]2C(=O)C[C@@]2(C)[C@H]1CC[C@]2(O)C(=O)CO [Cortisone]	93 ± 5.6
COC(=O)[C@H](c1ccccc1Cl)N1CCc2sccc2C1 [Clopidogrel (Plavix)]	96.6
COCCCC/C(=N\OCCN)c1ccc(C(F)(F)F)cc1 [Fluvoxamine maleate]	111 ± 4.7
CCCCC1CCC(c2nc(-c3ccncc3)no2)CC1 (stereo unspecified)	107
O=C(O)c1cn(-c2ccc(F)cc2)c2cc(N3CCNCC3)c(F)cc2c1=O [Sarafloxacin]	89.8
C[C@@H](NCc1cc(Br)cc2[nH]c(=O)c(=O)[nH]c12)P(=O)(O)O	96.4
CC[C@H](/C=C/[C@@H](C)[C@H]1CC[C@H]2[C@@H]3CC=C4C[C@@H](O)CC[C@]4(C)[C@H]3CC[C@]12C)C(C)C [Stigmasterol (Stigmasterin)]	95.3
COc1cccc(/C=N/N=C/c2cccc(OC)c2)c1	99.7
O=C(O)c1ccc(O)c(O)c1 [Protocatechuic acid]	103
O=C(NC[C@H]1CN(c2ccc(N3CCOCC3=O)cc2)C(=O)O1)c1ccc(Cl)s1 [Rivaroxaban (Xarelto)]	111
C[C@@H]1C[C@H]2[C@@H]3C[C@H](F)C4=CC(=O)C=C[C@]4(C)[C@@]3(F)[C@@H](O)C[C@]2(C)[C@@]1(O)C(=O)CO [Flumethasone]	103
Cc1cc2c(cc1CC(=O)c1sccc1S(=O)(=O)Nc1onc(C)c1Cl)OCO2	107
O=C(O)Cc1ccc(-c2ccccc2)cc1 [Felbinac]	98.9

Compound	mean cytoplasmic OPP incorporation
COc1ccc(CN2C(=O)C(=O)c3cc(OC(F)(F)F)ccc32)cc1	102
c1ccc(NCc2ccc(CNc3ccccn3)cc2)nc1	102
NCc1ccccc1CC(=O)N[C@@H]1C(=O)N2C(C(=O)O)=C(CSc3nnnn3CC(=O)O)CS[C@H]12 [Ceforanide]	99.6
N=C(NCCCCCCNC(=N)NC(=N)Nc1ccc(Cl)cc1)NC(=N)Nc1ccc(Cl)cc1 [Chlorhexidine]	83.6
COc1c2occc2cc2ccc(=O)oc12 [Methoxsalen (Oxsoralen)]	124
COc1ccc2c(OCc3nnc4ccc(-c5ccccc5)nn34)ccnc2c1	100
CN1CCN(C2=Nc3ccccc3Oc3ccc(Cl)cc32)CC1 [Loxapine succinate]	112
N[C@H](C(=O)O)c1ccc(O)c(C(=O)O)c1 [(S)-3-Carboxy-4-hydroxyphenylglycine]	104
C[C@@]1(C(=O)Nc2ccc(F)nc2)CCCN1c1nc(Nc2cc(C3CC3)n[nH]2)c2cccn2n1	112
Clc1ccc(CCC(Cn2ccnc2)Sc2c(Cl)cccc2Cl)cc1 (stereo unspecified) [Butoconazole nitrate]	103
N#Cc1ccc(C(c2ccc(C#N)cc2)n2cncn2)cc1 [Letrozole]	116
C[N+]1(C)CCC(OC(=O)C(O)(c2ccccc2)C2CCCC2)C1 (stereo unspecified) [Glycopyrrolate]	110
O=C(Nc1cccc(Cl)c1)c1ccccn1	97.5
O=C1NC(=O)c2c1c(-c1ccccc1)cc1[nH]c3ccc(O)cc3c21	51.8
CN(C)CCCN1c2ccccc2Sc2ccc(C(F)(F)F)cc21 [Triflupromazine hydrochloride]	109
CCN(CC)CCOC(=O)C1(C2CCCCC2)CCCCC1 [Dicyclomine hydrochloride]	106
CCCCC(O)c1ccccc1 (stereo unspecified) [Fenipentol]	99.5
CC(N/C(=N\C#N)Nc1ccncc1)C(C)(C)C (stereo unspecified) [Pinacidil H2O]	105
CC(N/C(=N\C#N)Nc1ccncc1)C(C)(C)C (stereo unspecified) [Pinacidil]	94.1
CCCc1cc(C)[nH]c(=O)c1CNC(=O)c1cc(-c2ccc(N3CCN(C(C)C)CC3)nc2)cc2c1cnn2C(C)C	123
C[N+]1(C)CCC(OC(=O)C(c2ccccc2)c2ccccc2)CC1	104
NC(=O)c1ccc(N(C(N)=O)c2c(F)cccc2F)nc1-c1ccc(F)cc1F	97.9
CC(=O)Oc1ccccc1C(=O)Nc1ncc([N+](=O)[O-])s1 [Nitazoxanide (Alinia, Annita)]	106
O=Cc1c2[nH]c3ccccc3c2cc2[nH]c3ccccc3c12 [6-Formylindolo [3,2-B] carbazole]	92.9
